Reference: PubChem BioAssay AID485294 (National Center for Advancing Translational Sciences (NCATS), 2010)
The whole screen tested about 370,000 compounds, of which about 150 (0.041%) were called active. This list was built around the results that the source calls inconclusive (neither active nor inactive); the mix of calls is not that of the screen. The call rests on the fitted dose curve; in most records, active means well fitted inhibition curve with a large enough effect; inconclusive means small, poorly fitted or top-dose-only effect; inactive means flat fitted curve, though single readings scatter. No potency is given beside an inconclusive call; the fits are too rough.
Further: nearly all actives have a fitted effect of over 25% in size.
Potency means the concentration at half of the fitted maximal effect; tags describe the fitted curve by direction and shape.

What follows are compounds tested against Beta-lactamase (Escherichia coli (strain K12)) (UniProt P00811) (assay: qHTS Inhibitors of AmpC Beta-Lactamase (assay with detergent)). Details: AmpC hydrolysis of nitrocefin, absorbance 480 nm, 0.01% Triton; series mostly up to 114 µM.
Sequence of UniProt P00811 (P00811 whole entry, looked up): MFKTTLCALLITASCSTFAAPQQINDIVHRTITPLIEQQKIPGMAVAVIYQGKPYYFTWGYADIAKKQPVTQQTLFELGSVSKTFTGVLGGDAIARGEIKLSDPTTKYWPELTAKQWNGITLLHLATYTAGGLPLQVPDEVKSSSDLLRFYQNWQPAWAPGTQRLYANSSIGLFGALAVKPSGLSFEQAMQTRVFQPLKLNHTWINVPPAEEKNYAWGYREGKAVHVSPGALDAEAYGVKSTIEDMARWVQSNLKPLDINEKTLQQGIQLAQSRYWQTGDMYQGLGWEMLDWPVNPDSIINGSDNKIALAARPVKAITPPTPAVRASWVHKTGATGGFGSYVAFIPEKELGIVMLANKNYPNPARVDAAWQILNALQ
Summary of the method: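 20 mM phosphate pH 7.0 + 0.01% (detergent screen) or 0.0001% Triton X-100; 5.3 nM AmpC reagent; cpd preinc 15 min RT; nitrocefin (800 uM stock) to start; A480 q20 s × 4 min; Activity was normalised to no-enzyme and no-compound control wells.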
`Cc1ccc(C(=O)NCC(=O)N2CCC3(CC2)NCCc2[nH]cnc23)cc1C` was tested, and the Potency was inconclusive [inhibitor, full curve, poor fit].
With `C=C(C)C(=O)Oc1ccc(N2C(=O)[C@@H]3C4C=CC(C4)[C@@H]3C2=O)cc1` the Potency was inconclusive [inhibitor, full curve, poor fit].
With `CCN(CC)S(=O)(=O)c1cccc(C(=O)Nc2ccc3c(c2)OCO3)c1` the Potency was inconclusive [inhibitor, full curve, poor fit].
With `Cc1ccc(S(=O)(=O)N(CC(=O)N/N=C/c2ccco2)c2cc(Cl)cc(Cl)c2)cc1` the Potency was inconclusive [inhibitor, full curve, poor fit].
`CCOC(=O)NC(C(F)(F)F)(C(F)(F)F)P(=O)(c1ccccc1)c1ccccc1` was tested, and the Potency was inconclusive [inhibitor, full curve, poor fit].
For `O=C(c1ccc(CS(=O)(=O)c2ccc(Br)cc2)o1)N1CCCC1`, the Potency was inconclusive [inhibitor, full curve, poor fit].
`CC(=O)CCS(=O)(=O)c1ccc(NC(C)=O)cc1` was tested, and the Potency was inconclusive [inhibitor, full curve, poor fit].
With `O=C(NCc1ccccc1)C1CCN(C(=O)NCc2ccccc2)CC1` the Potency was inconclusive [inhibitor, full curve, poor fit].
With `COc1ccc(C)cc1Nc1ccc(C(=O)O)cc1[N+](=O)[O-]` the Potency was inconclusive [inhibitor, full curve, poor fit].
For `O=S(Cc1ccc(Br)cc1)Cc1nnc(SCc2c(Cl)cccc2Cl)n1-c1ccccc1` (stereo not drawn), the Potency was inconclusive [inhibitor, full curve].
For `CCOC(=O)c1c(-c2cccc([N+](=O)[O-])c2)cn2ccccc12`, the Potency was inconclusive [inhibitor, full curve, poor fit].
In the case of `CN(CC1CCCO1)S(=O)(=O)c1ccc(C(=O)Nc2nc(-c3ccccn3)cs2)cc1` (stereo not drawn), the Potency is reported as “inactive”.
`Clc1ccc(-c2ccnc(-n3cccc3)n2)s1` was tested, and the Potency was inconclusive [inhibitor, single point].
`Cc1cc(C(=O)N(C)CC(=O)Nc2ccccc2C(F)(F)F)c(C)o1` was tested, and the Potency was inconclusive [inhibitor, partial curve, poor fit].
`NC(=O)c1cn(-c2ccccc2)nc1-c1cccnc1` was tested, and the Potency was “inactive”.
In the case of `Cc1sc(NC(=O)/C=C/c2ccc3c(c2)OCO3)nc1-c1ccccc1`, the Potency is reported as inconclusive [inhibitor, single point].
With `Cc1c(C(=O)N2CCOCC2)sc2nc(-c3ccccc3)cn12` the Potency was “inactive”.
In the case of `O=C(Nc1cccc(-c2nc3ncccc3o2)c1)c1sc2cc(Cl)ccc2c1Cl`, the Potency is reported as “inactive”.
In the case of `O=C(OCc1c(Cl)cccc1Cl)c1cccnc1Cl`, the Potency is reported as inconclusive [inhibitor, single point].
`O=C(CN1CCCCC1)Nc1ccccc1Cl` was tested, and the Potency was inconclusive [inhibitor, single point].
In the case of `CC(C)OC(=O)C1C2C=CC3(CN(CC4CCCO4)C(=O)C13)O2` (stereo not drawn), the Potency is reported as inconclusive [inhibitor, full curve].
For `CCc1ccc(-n2c(O)cnc2Nc2nc(C)cc(C)n2)cc1`, the Potency was inconclusive [inhibitor, full curve, poor fit].
In the case of `CC(NC(=O)c1ccccc1)C(c1cccs1)N1CCOCC1` (stereo not drawn), the Potency is reported as inconclusive [inhibitor, full curve].
`COc1ccccc1S(=O)(=O)Cc1ccc(C(=O)NCc2ccccc2)o1` was tested, and the Potency was inconclusive [inhibitor, full curve, poor fit].
In the case of `CCOC(=O)c1nc(C)n(-c2cc(Cl)cc(Cl)c2)n1`, the Potency is reported as inconclusive [inhibitor, full curve, poor fit].
In the case of `Cc1ccc(-n2ncc3c(NCCCN4CCOCC4)ncnc32)c(C)c1`, the Potency is reported as inconclusive [inhibitor, full curve].
For `CCCn1c(SCC(=O)NCCc2ccccc2)nnc1-c1cccnc1`, the Potency was inconclusive [inhibitor, full curve, poor fit].
`FC(F)(F)COc1nc(N2CCOCC2)nc(N(c2ccccc2)c2ccccc2)n1` was tested, and the Potency was inconclusive [inhibitor, partial curve, poor fit].
With `Cc1ccc(-c2nc3ccc(C(=O)O)cc3nc2-c2ccc(C)cc2)cc1` the Potency was “inactive”.
For `CSc1ccc(Cl)c(C(=O)OCC(=O)N2CCOCC2)c1`, the Potency was inconclusive [inhibitor, full curve, poor fit].
`Cc1ccc(-c2nnc(SCC(=O)Nc3cccc(C(=O)N4CCOCC4)c3)n2C)cc1` was tested, and the Potency was inconclusive [inhibitor, full curve, poor fit].
For `COc1ccccc1C(=O)N1CCCN(C(=O)c2ccccc2OC)CC1`, the Potency was inconclusive [inhibitor, full curve, poor fit].
In the case of `CCC1(C)Cc2c(sc3c2c(=O)n(-c2ccccc2)c(=O)n3C)CO1` (stereo not drawn), the Potency is reported as “inactive”.
For `C/C(O)=C/c1nc2ccccc2[nH]c1=O`, the Potency was inconclusive [inhibitor, partial curve].
In the case of `COc1cc(CNC(C)(C)CO)ccc1OCC(=O)Nc1ccc(Br)cc1`, the Potency is reported as inconclusive [inhibitor, full curve].
With `Cc1coc2c(C)c3oc(=O)c(CCC(=O)NCc4ccccn4)c(C)c3cc12` the Potency was inconclusive [inhibitor, full curve].
With `CCN(C(=O)CSc1ncc2c(n1)-c1cc(Cl)ccc1N(Cc1ccccc1)S2(=O)=O)c1cccc(C)c1` the Potency was “inactive”.
For `O=C(c1ccco1)N1CCCC(c2nc3c(nnn3Cc3ccccc3)c(=O)[nH]2)C1` (stereo not drawn), the Potency was inconclusive [inhibitor, full curve, poor fit].
For `Cc1ccc(/C=N/NC(=O)CNC(=O)c2ccc(C)c([N+](=O)[O-])c2)o1`, the Potency was inconclusive [inhibitor, single point].
For `O=[N+]([O-])c1ccccc1S(=O)(=O)Oc1ccc(C(=S)N2CCOCC2)cc1`, the Potency was inconclusive [inhibitor, full curve].
For `Cc1c(OCc2nn[nH]n2)ccc2c(-c3ccccc3)cc(=O)oc12`, the Potency was inconclusive [inhibitor, partial curve, poor fit].
For `CC(C)(C)SCCNS(=O)(=O)c1ccc2ccccc2c1`, the Potency was inconclusive [inhibitor, partial curve].
In the case of `CC(=O)c1cc(-c2ccccc2)n(CC(=O)Nc2cccc(C)c2)c1C`, the Potency is reported as inconclusive [inhibitor, single point].
With `COc1ccc(-c2nc3cnccn3c2Nc2ccc(C)cc2)cc1` the Potency was inconclusive [inhibitor, full curve].
For `COc1ccc(C(=O)Nc2ccc(C(=O)Nc3nccs3)cc2)cc1[N+](=O)[O-]`, the Potency was inconclusive [inhibitor, single point].
`COc1ccc(C(=O)Nc2ccccc2Cc2ccccc2)c(OC)c1` was tested, and the Potency was inconclusive [inhibitor, full curve].
For `CN(c1ccccc1)S(=O)(=O)c1ccc(C(=O)NCc2ccccc2CN2CCCC2)cc1`, the Potency was inconclusive [inhibitor, full curve].
`Cc1cc(F)ccc1NC(=O)C1CSC2(C)CCC(=O)N12` (stereo not drawn) was tested, and the Potency was inconclusive [inhibitor, full curve, poor fit].
With `O=C(c1cc(F)c(F)cc1Cl)N1CCN(S(=O)(=O)c2cccs2)CC1` the Potency was inconclusive [inhibitor, full curve, poor fit].
For `O=C(COc1ncnc2ccccc12)NCCc1ccccc1`, the Potency was “inactive”.
For `O=C(CN1C(=O)C(c2ccc(F)cc2)=NC12CCCCCC2)Nc1ccccc1Cl`, the Potency was “inactive”.
`CCN(CC(=O)NC(C)C)C(=O)[C@@H](NC(=O)c1ccco1)C(C)C` was tested, and the Potency was inconclusive [inhibitor, full curve, poor fit].
For `O=C(NC(=S)Nc1ccccn1)c1ccco1`, the Potency was inconclusive [inhibitor, full curve, poor fit].
`CN1C(=O)/C(=C/c2cc(C(C)(C)C)c(O)c(C(C)(C)C)c2)NC1=S` was tested, and the Potency was “inactive”.
With `CCCC(O)(c1ccc(OC)cc1)C(CN(C)C)c1ccccc1` (stereo not drawn) the Potency was inconclusive [inhibitor, full curve, poor fit].
For `COc1ccc(-c2cc(C(=O)N3CCOCC3)c3ccccc3n2)cc1OC`, the Potency was inconclusive [inhibitor, partial curve].
In the case of `Cc1c(Br)cc(C(=O)NCc2ccco2)c(C)c1C`, the Potency is reported as inconclusive [inhibitor, full curve, poor fit].
For `Cc1cc(NC(=O)c2ccc(COc3ccc(Cl)c(C)c3)o2)no1`, the Potency was inconclusive [inhibitor, partial curve].
With `CCOc1cc(/C=N/NC(=O)C(=O)NCC2CCCO2)ccc1OCC(=O)N1CCOCC1` (stereo not drawn) the Potency was inconclusive [inhibitor, full curve, poor fit].
With `COc1cc(NC(=O)CSCc2ccccc2)c(C(=O)O)cc1OC` the Potency was inconclusive [inhibitor, single point].
In the case of `COc1ccccc1CNC(=O)COC(=O)CSc1ccc(Cl)cc1`, the Potency is reported as inconclusive [inhibitor, full curve, poor fit].
With `Cn1c(C(=O)N(Cc2ccccc2)Cc2ccccn2)cc2sccc21` the Potency was inconclusive [inhibitor, full curve, poor fit].
In the case of `Cc1cccc(-n2c(SCC(=O)NCc3ccco3)nc3ccccc3c2=O)c1`, the Potency is reported as inconclusive [inhibitor, partial curve, poor fit].
